In PubChem BioAssay AID624417 (National Center for Advancing Translational Sciences (NCATS), 2012):
In all, about 410,000 compounds went through this assay and about 6,400 (1.6%) were called active. Inconclusive results, whose numbers are uncertain, are shown with a selection of clear calls. The call rests on the fitted dose curve; in most records, active means well fitted inhibition curve with a large enough effect; inconclusive means small, poorly fitted or top-dose-only effect; inactive means no such curve, though single readings can be large or run the other way. Potencies of inconclusive entries are doubtful fits and often do not repeat.

biological target: Glucagon-like peptide 1 receptor (Homo sapiens) (UniProt P43220); experiment: qHTS of GLP-1 Receptor Inverse Agonists (Inhibition Mode); conditions: HEK293 GLP-1R CRE-luciferase, luminescence, 24 h, GLP-1R form is constitutively active; series mostly up to 38.3 µM; further: nearly all actives have a fitted effect of over 55% in size
UniProt P43220, sequence (P43220 whole entry, looked up): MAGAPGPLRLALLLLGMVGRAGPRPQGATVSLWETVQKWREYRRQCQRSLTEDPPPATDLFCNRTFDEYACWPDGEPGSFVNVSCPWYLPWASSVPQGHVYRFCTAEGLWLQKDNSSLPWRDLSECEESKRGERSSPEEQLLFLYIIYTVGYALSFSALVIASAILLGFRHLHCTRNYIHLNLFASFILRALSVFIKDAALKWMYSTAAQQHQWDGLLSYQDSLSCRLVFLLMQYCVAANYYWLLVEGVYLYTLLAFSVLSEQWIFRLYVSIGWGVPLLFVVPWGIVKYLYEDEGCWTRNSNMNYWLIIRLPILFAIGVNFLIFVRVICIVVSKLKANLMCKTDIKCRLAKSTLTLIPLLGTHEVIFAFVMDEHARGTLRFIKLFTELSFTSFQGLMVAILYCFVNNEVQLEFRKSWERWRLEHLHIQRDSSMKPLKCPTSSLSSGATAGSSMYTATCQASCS
Procedure, shortened: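 Seeding at 200 cells/uL, 12 h culture, 24 hr compound treatment, then luciferase reagent and a luminescence read; cells are HEK293 stably expressing a constitutively active GLP-1R plus cAMP-responsive luciferase.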
Potency means the concentration at half of the fitted maximal effect; tags describe the fitted curve by direction and shape.

Potency, inactive:
C#CCNC(=O)C1=C[C@@H](c2csc3ccccc23)C[C@@H](OCc2ccc(CO)cc2)O1
CC1=CC2=NC(=O)/C(=C\c3ccc(-c4cccc(Cl)c4)o3)C(=N)N2O1
Cc1ccc(NCc2ccccc2O)cc1
CC(=O)O/N=C(/C)c1ncc(C(F)(F)F)cc1N1CCOCC1
CC(C)=CCC1=C(OCC(=O)O)C(=O)c2ccccc2C1=O
COc1ccc(CNCCCO)cc1OC
O=c1c2ccccc2nc2n1CCCCN2
COc1cc2c(cc1OC)CN(c1ccc(F)cc1[N+](=O)[O-])CC2
CCC(C)[C@H]1COCCS(=O)(=O)N1Cc1ccc(Cl)cc1Cl (stereo partly drawn)
COc1ccc(NC(=O)c2ccco2)cc1NC(=O)c1cc2ccccc2o1
COc1ccc(Br)cc1CNC(=O)Cn1nc(C)n2c(cc3cc(F)ccc32)c1=O
CC(C)(C)c1ccc(-c2noc(C(=O)NN)n2)cc1
Cc1cc(C(=O)O)c(=O)[nH]c1C
O=C(Cc1ccc(F)cc1)c1ccc(O)cc1O
COc1ccc(Cl)cc1NC(=O)CN(C)C(=O)Cn1cnnn1
COc1cc(/C=C(/C#N)c2nc(-c3cc4ccccc4oc3=O)cs2)ccc1O
COc1cccc(NC(=O)Nc2ccc(CC(=O)O)cc2)c1

Potency, active:
O=C(Nc1ccc(Cl)cc1)C1Cc2c(-c3ccc4c(c3)OCO4)ccnc2O1 (stereo not drawn) 11.2 µM
CCOC(=O)/C(=C/c1c2ccccc2cc2ccccc12)NC(=O)c1ccccc1 4.47 µM
CC(C)(C)c1nc2ccccc2c(=O)n1N1C(=O)c2ccccc2C1=O 10 µM
O=C(NC1CCCC1)C(c1ccccc1F)N(C(=O)Cc1cccs1)c1ccc2c(c1)OCCO2 (stereo not drawn) 10 µM

Potency, inconclusive:
Cc1ccccc1C1CC(c2ccccc2)Nc2ncnn21 (stereo not drawn) 20 µM [inhibitor, single point]
COc1cccc(CC2(CO)CCCN(Cc3cn[nH]c3-c3ccc(F)cc3)C2)c1 (stereo not drawn) 11.2 µM [inhibitor, partial curve, poor fit]
COc1ccc(NC(=O)c2cc(C)n(Cc3cccs3)c2C)cc1 28.2 µM [inhibitor, single point]
CCOC(=O)c1cc2occc2n1Cc1c(F)cccc1Cl 31.6 µM [inhibitor, single point]
Cc1cccc(C)c1NC(=O)c1ccc2c(c1)nnn2C1CCCC1 10 µM [inhibitor, partial curve, poor fit]
Cc1ccc(/C=N/N2CCN(C3c4ccccc4-c4ccccc43)CC2)o1 10 µM [inhibitor, partial curve, poor fit]
CCN(CC)S(=O)(=O)c1ccc2c(c1)nc(CCC(=O)OCC(=O)Nc1cc(Cl)cc(Cl)c1)n2C 10 µM [inhibitor, single point]
Cn1nc(C(F)(F)F)c2cc(C(=O)Nc3ccc(F)cc3F)sc21 28.2 µM [inhibitor, single point]
CCN1CCN(C(=S)Nc2cccc(C(F)(F)F)c2)CC1 1 µM [inhibitor, full curve]
CN(C)c1ccnc(N(Cc2ccccc2)Cc2ccccc2)c1C#N 12.6 µM [inhibitor, single point]
CC(CSC(=O)c1ccccc1)C(=O)N1c2ccccc2CC1C(=O)O (stereo not drawn) 11.2 µM [inhibitor, single point]
COc1cccc(-c2cc(C(=O)N3C(C)CCCC3C)no2)c1 (stereo not drawn) 7.94 µM [inhibitor, partial curve, poor fit]
O=S(=O)(c1ccccc1)N1CCN(c2ccnc3cc(Cl)ccc23)CC1 31.6 µM [inhibitor, single point]
Cn1c(-c2ccc(F)cc2)cnc1SCC(=O)Nc1ccccc1 28.2 µM [inhibitor, single point]
CC1=C(C(=O)OCC2CCCO2)C(c2cccc(C(F)(F)F)c2)C2=C(CC(c3ccco3)CC2=O)N1 (stereo not drawn) 8.91 µM [inhibitor, partial curve, poor fit]
COc1cccc(NC(=S)N2CCCN(Cc3ccc(F)cc3)C2)c1 22.4 µM [inhibitor, single point]
CC1CCC2(CC1)NC(=O)N(CC(=O)c1ccc3c(c1)OCO3)C2=O (stereo not drawn) 11.2 µM [inhibitor, partial curve, poor fit]
O=S(=O)(c1ccc(NC(=S)NN=Cc2ccccc2O)cc1)N1CCCCC1 28.2 µM [inhibitor, partial curve, poor fit]
CC(C)(C)C1CCSC2=NCCC[C@]2(c2ccccc2)C1 (stereo partly drawn) 15.8 µM [inhibitor, partial curve, poor fit]
CC(C)C[C@@H](CN1CCCC1CN1C(=S)NC[C@@H]1Cc1ccccc1)N1C[C@H](Cc2ccc(O)cc2)N(CCc2ccccc2)C1=S (stereo partly drawn) 10 µM [inhibitor, single point]
CCc1ccc2occ(CC(=O)N(Cc3ccccc3)C3CCS(=O)(=O)C3)c2c1 (stereo not drawn) 11.2 µM [inhibitor, single point]
COCCn1c(COc2ccc(C)cc2)nc2ccccc21 28.2 µM [inhibitor, single point]
Cc1ccc(NC(=O)CN2C(=O)C(c3ccccc3)=NC23CCCCC3)cc1C 11.2 µM [inhibitor, single point]
Cc1ccc(C)c(C(=O)N(Cc2nc(-c3ccc(Cl)cc3)no2)C(C)C)c1 12.6 µM [inhibitor, partial curve, poor fit]
Cc1cc(C)cc(Cn2c3ccc(NC(=O)NCCc4cccs4)cc3c(=O)n2C)c1 28.2 µM [inhibitor, single point]
O=C(Nc1cnn(Cc2ccc(Cl)cc2Cl)c1)c1noc2c1CCCC2 12.6 µM [inhibitor, single point]
Cc1cc2nc(C3CCN(Cc4nnnn4Cc4cccs4)CC3)[nH]c2cc1C 28.2 µM [inhibitor, single point]
Cc1ccc(C2(C)NC(=O)N(CC(=O)c3ccc(Cl)s3)C2=O)cc1 (stereo not drawn) 14.1 µM [inhibitor, single point]
CNC(=O)COC(=O)c1ccccc1C(=O)c1ccc(Cl)c([N+](=O)[O-])c1 28.2 µM [inhibitor, single point]
O=C(NCC(c1ccco1)N1CCCC1)c1cccc(S(=O)(=O)Nc2ccc(F)cc2)c1 (stereo not drawn) 28.2 µM [inhibitor, single point]
COc1ccc(C2=NOC(Cn3nc(C(=O)NCc4ccc(C)cc4)cc3-c3ccccc3)C2)cc1 (stereo not drawn) 10 µM [inhibitor, partial curve, poor fit]
COc1cc2c(c(OC)c1OC)-c1c(cc(OC)c(OC)c1OC)C[C@H](C)[C@H](C)C2 28.2 µM [inhibitor, single point]
CCOC(=O)C1=C(CN2CCC(C)CC2)NC(=O)NC1c1ccc(OC(C)C)cc1 (stereo not drawn) 11.2 µM [inhibitor, partial curve, poor fit]
Cc1ccc(/C=C/C(=O)c2ccccc(=O)c2O)cc1C 1.58 µM [inhibitor, full curve, poor fit]
COc1ccc(-c2cc3c(=O)n(CC(=O)NCCN4CCCC4)nc(C)n3n2)cc1 28.2 µM [inhibitor, single point]
Cc1ccc(Nc2cc(-n3nc(C)cc3C)ncn2)c(C)c1 28.2 µM [inhibitor, single point]
Cc1cccc(NC(=O)c2cccc(S(=O)(=O)N3CCc4ccccc4C3)c2)n1 28.2 µM [inhibitor, single point]
COc1cc(NC(=S)NCCC(c2ccccc2)c2ccccc2)c(OC)cc1Cl 7.94 µM [inhibitor, partial curve, poor fit]
CC1CCC(C(C)C)C(=O)/C1=C/c1ccc(N)cc1 (stereo not drawn) 11.2 µM [inhibitor, partial curve, poor fit]
ON=C1c2ccccc2-c2ccccc21 12.6 µM [inhibitor, single point]
Oc1ccc(N=Nc2n[nH]c(-c3ccc(Cl)cc3)n2)cc1 2.51 µM [inhibitor, full curve]
CC(C)c1ccc(NC(=O)C2CC2c2ccccc2)cc1 (stereo not drawn) 10 µM [inhibitor, partial curve]
Cc1ccc(S(=O)(=O)Nc2c(NC3CCCCC3)c3ccccc3oc2=O)cc1 28.2 µM [inhibitor, single point]
Oc1ccc(Br)cc1-c1cc(-c2ccccc2)n[nH]1 17.8 µM [inhibitor, partial curve, poor fit]
O=C(CCC(=O)Nc1ccccc1Cl)NNS(=O)(=O)c1ccc(Cl)cc1 22.4 µM [inhibitor, partial curve, poor fit]
Cc1ccc(-c2nc3ccccn3c2NCc2ccc3c(c2)OCO3)cc1 28.2 µM [inhibitor, single point]
CN(CC1CCCN(CCc2cccc(C(F)(F)F)c2)C1)C(=O)c1ccc2nc[nH]c2c1 (stereo not drawn) 11.2 µM [inhibitor, partial curve]
